Drawing on the RNAGym collection of RNA variant scans (doi:10.1093/nar/gkz1192), this text covers self-cleavage for 34 variants.

B1: CPEB3 Ribozyme (parent)
chain: UAACAGGGGGCCACAGCAGAAGCGUUCACGUCGCAGCCCCUGUCAGAUUCUGGUGAAUCUGCGAAUUCUGCUGUAUAUCUC

The source gives no read counts; variants with many changes may rest on few reads.

Variants of B1 are the subject of the data set. The data set can be described thus: self-cleavage, relative activity (ratio to wild type); higher = more cleavage; in vitro, sequencing. An outline of the steps:
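CPEB3 self-cleaving ribozyme mutant libraries were made by rounds of error-prone PCR, barcoded, and transcribed in vitro with T7 RNA polymerase for 5 hours at 37°C. Cleavage occurred during transcription and a 15 min DNase I step before EDTA stop. RNAs were reverse transcribed with template switching and Illumina-sequenced, with DNA sequencing mapping barcodes to variants. Relative activity is the variant's cleaved/total read fraction divided by wild type's (minimum 5 reads), averaged across three batches.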
For the variant UAACAGGGGGACACAGCAGAAGCGUACACGUCGCAGCCCCUGUCAGAUUCUGGUGGAUCUGCGAAUUCUGCUGUAUAUCUC, the self-cleavage is 0.42.
The value for UAACAGGGGGGCACAGCAGAGGCGUUCACGUCGCAGCCCCUGUCAAAUUCUGGUGAAUCUGCAAAUCCUGCUGUAUAUCUC was 0.03; that for UAACAGGGGGGCACAGCAGAAGCGUUCGCGUCGCAGGCCCUGUCUGAUUCUGGUGAAUCUGCGAAUUCUGCUGUAUAUCUC was 0.28; that for UAACAGGGGGACACAGCAGAAGCGUUCUCGUCGCAGCCCCUGACAGAUUCUGGUGAAUCUGCGGAUUCAGCAGUAUAUCUC was 0.05.
The figure for UAACAGGGGGACACAGCAGAAGCGUUCACGUCGCAGCCCCUGUCAGGUCCUGGUGAAUCUGCGAAUUUUGCUGUAUAUCUC is 0.05; for UAACAGGGGGGCACGGCAGAAGCGCUCACGUCGCAGCCCGUGUCAGAUUCUGGUGAAUCCGCGAAUUCCGCUGUAUAUCUC it is 0.06.
The figure for UAACAGGGGGGCACGGCAGAAGCGUUCACGUCGCAGCCCCUGUCAGAUUCUGGUGGAUCUGCGAAUUCUGCUGUAUAUCUC is 0.19; for UAACAGGGGGACAUAGCAGAAGCGUUCACGUCGCAGCCCCGGUCAGAUUCUGGUGAAUCCGCGAAUUCUGCUGUAUAUCUC it is 0.32.
In the case of UAACAGGGGGGCACAGCUGAAGCGUUCACGACGCAGCCCCAGUCAGAUUCUGGUGAAUCUGCGAAUACUGCUGUGAAUCUC, the self-cleavage is 0.01.
With UAACAGGGGGACACAGCAGAAGCGUUCACGUCGCAGCCCCUGUCAGAUUCUGGUGAAUCUGCGGAUUCUGCUGUAAAUCUC, the self-cleavage amounted to 0.13.
Turning to UAACAGGGGGGCACAGCAGAGGCGCUCACGUCGCAGCCCCUGUCAGAUCCUGGUGAAUCUGCGAAUUCUGCUGUAUAUCUC, the self-cleavage worked out at 0.21.
The value for UAACAGGGGGACACAGCAUGAGCGUUCACGCCGCGGCUCCUGUCAGAUUCUGGUGAAUCUGCGAAUUCCGCUGUAUAUCUC was 0.02.
Turning to UAACAGGGGGACACAGCAGAAGCGUUCACGUCACAGCCCCUGUCAGAUUCUGGCGAAUCUGCGAAUCCUGCUGUAUAUCUC, the self-cleavage was determined as 0.09.
The value for UAACAGGGGGGCACAGCUGAAGCGUUCACGUCGCAGCCCCCGUGAGAUUCUGGUGAAUCUGCGAAUUCUGCUGUAUAUCUC was 0.05.
The value for UAACAGGGGGACACAGCAGAAGCGAUCACGACGCGGCCCCUGACAGAUUCUGGUGAAUCCGCGAAUUCUGCUGUAUAUCCC was 0.05.
The figure for UAACAGGGGGACACAGCAGAAGCGUUCGCGUCGCAGCCCCUGUCAGAUUCUGGUGAAUCUGCGAAUUCUGCGGUAUAUCUC is 0.04; for UAACAGGGGGGCACGGCAGAAGCGUCCACGUCGCAGCCCCAGUCAGAUUCUGGUGAAUCUGCGAAUUCUGCUGUAUAUCUC it is 0.09; for UAACAGGGGGGCACAGCAGAAGCGUUCGCGUCGCUGCCCCUGUCAGAUUCUGGUGAAUCUGCGAACUCUGCUGUAUAUCUC it is 0.04.
On to UAACAGGGGGACACAGCAGAAGCGUUCACGUCGCUGCCCUUGUCAGAUUCUGGUGAGUCUGCGAAUUCUGCAGUAUAUCUC, for which the self-cleavage is 0.06.
The figure for UAACAGGGGGGCACAGCUGAAGCGUUCACGACGCAGCCCCUGUCAGAUUCUGGUGAAUCCGCGAAUUCUGCUGUAUACCUC is 0.12; for UAACAGGGGGACACAGCAGAAGCGCUCACGUCGCUGCCCCAGUCAGAUUCUGGUGAAUCUGCGAAUUCUGCUGUAUAUCAC it is 0.26; for UAACAGGGGGACACAGCAGAAGCGUUCACGUCGCAGCCCCUGUCAGAUUCUGGAGGAUCUGCGAAUUCUGCUGUAUACCUC it is 0.27.
In the case of UAACAGGGGGACACAGCAGAAGCGUUCACGUCGCGGCCCCUGUCUGAUUCUGAUGAAUCUGCGAAUUCUGCUGUAUAUCUC, the self-cleavage was 0.49.
Regarding UAACAGGGGGGCGCAGCAGAAGCGUUCACGUCGCAGCCCCUGUCAAAUUCUGGUGAAUCUGCGAAUUCAGCGGUAUAUCUC, the self-cleavage was 0.07.
With UAACAGGGGGGCACGGCAGAAGCGUUCACGUCGCAGCCCCUGUCAGAUCCUGGUGAAUCUGCGAAUUCUGCUGUAUAUCUC, the self-cleavage worked out at 0.13.
The figure for UAACAGGGGGGCACGGCAGAAGCGUUCACGUCGCAGCCCCUGUCAGAUACUGGUGAAUCUGCGAAUUCUGCUGUAUAUCUC is 0.33; for UAACAGGGGGGCACAGCAGAAGCGUUCCCGUCGCAGCCCCUGUCAGGUUCUGGUGAAUCUGCGAAUUCUGCUGUAUAUCUC it is 0.1.
The value for UAACAGGGGGACACAGCAGAAGCGUUCACGUCGCGGCCCCUGGCAGAUUCUGGUGAAUCUGCGAAUUCUGCUGUAUAUCUC was 0.5; that for UAACAGGGGGACACAGCAGAAGCGUUCACGACGCAGCCCCUGUCAGGUUCUGGAGAAUCUGCGAAUCCAGCUGUAUAUCUC was 0.05; that for UAACAGGGGGACACAGCAGAAGCGUACAUGUCGCAGGCCCUGUCAGACUCGGGUGAAUCUGCGAAUUCUGCUGUAUAUCUC was 0.03.
The value for UAACAGGGGGGCACAGCAGAGGCGUUCGCGUCGCAGCCCCUGUCAGAUUCUGGCGAAUCUGCGAAUUCUGCUGUAUAUCUC was 0.33; that for UAACAGGGGGGCGCAGCAGAAGCGUUCACGUCGCAGCCCCUGUCGGAUUCUGGUGAGUCUGCGAAAUCUGCUGUAUAUCUC was 0.04.
Turning to UAACAGGGGGACACAGCAGAAGCGUUCGCGUCGCAGGCCCUGCCAGAUUCUGGUGAAUAUGCGAAUUCUGCUGUAUAUCAC, the self-cleavage was 0.03.
On to UAACAGGGGGGCACAGCUGAAGCGUUCACGUUGCAGCCCCUGUCAGAUUCUGGUGAAUCUGCGAAUUCUGCUGUAUAUCGC, for which the self-cleavage worked out at 0.07.
